Laboratory results from PMC11665475, “The CTR hydrophobic residues of Nem1 catalytic subunit are required to form a protein phosphatase complex with Spo7 to activate yeast Pah1 PA phosphatase” (The Journal of Biological Chemistry, 2024).
No constants are given. Whether binding was seen depends on the method and setting. In cells and extracts the contact can be indirect. Some results given as binding are weak or reduced against the parent protein; the word gives no strength. Sequences can lack the tags named with a protein.

How the values were obtained:
Experiment in all cases: pull-down; protein A-tagged Nem1 (WT or variant) isolated by IgG-Sepharose affinity chromatography from cell extracts (3 mg protein) of nem1Δ spo7Δ pah1Δ (GHY85) cells co-overexpressing Spo7, at 4 °C; Spo7 in the affinity-purified Nem1 preparation scored by Western blot with anti-Spo7; loading normalized to the elution volume of purified Nem1-PtA
[1] = molecular target: T1, protein A-tagged Nem1 8R (S. cerevisiae, UniProt P38757 1-446, L414 R | L415 R | L417 R | L418 R | L421 R | V430 R | L434 R | L436 R)
T1 sequence (looked up): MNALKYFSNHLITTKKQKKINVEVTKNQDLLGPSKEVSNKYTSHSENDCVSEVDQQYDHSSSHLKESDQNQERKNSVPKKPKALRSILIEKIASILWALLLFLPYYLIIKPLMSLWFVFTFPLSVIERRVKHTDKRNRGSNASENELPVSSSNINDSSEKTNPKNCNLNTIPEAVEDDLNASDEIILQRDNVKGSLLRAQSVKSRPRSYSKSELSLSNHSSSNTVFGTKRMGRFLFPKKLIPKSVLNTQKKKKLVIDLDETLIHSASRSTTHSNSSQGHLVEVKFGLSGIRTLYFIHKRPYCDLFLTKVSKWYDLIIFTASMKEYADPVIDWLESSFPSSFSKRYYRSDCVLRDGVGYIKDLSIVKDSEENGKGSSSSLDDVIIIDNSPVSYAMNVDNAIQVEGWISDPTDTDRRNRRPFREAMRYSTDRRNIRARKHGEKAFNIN

[2] = molecular target: T2, protein A-tagged Nem1 Δ(251–413) (S. cerevisiae) (UniProt P38757)
T2 sequence: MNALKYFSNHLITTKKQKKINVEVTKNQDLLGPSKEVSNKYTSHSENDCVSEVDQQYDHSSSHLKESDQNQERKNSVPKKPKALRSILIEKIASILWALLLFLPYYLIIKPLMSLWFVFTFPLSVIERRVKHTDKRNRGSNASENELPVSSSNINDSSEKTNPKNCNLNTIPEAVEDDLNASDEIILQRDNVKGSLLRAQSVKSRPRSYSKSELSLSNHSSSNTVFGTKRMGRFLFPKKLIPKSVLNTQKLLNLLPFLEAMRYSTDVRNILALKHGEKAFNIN

[3] = molecular target: T3, protein A-tagged Nem1 Δ(251–446) (S. cerevisiae) (UniProt P38757)
T3 sequence: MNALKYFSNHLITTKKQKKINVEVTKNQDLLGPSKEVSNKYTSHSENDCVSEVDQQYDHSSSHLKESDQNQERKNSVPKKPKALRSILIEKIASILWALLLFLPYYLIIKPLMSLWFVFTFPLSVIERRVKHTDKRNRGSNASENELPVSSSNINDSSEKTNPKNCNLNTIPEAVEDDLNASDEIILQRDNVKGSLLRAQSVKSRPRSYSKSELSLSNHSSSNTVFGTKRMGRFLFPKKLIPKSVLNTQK

[4] = molecular target: T4, protein A-tagged Nem1 8A (S. cerevisiae, UniProt P38757 1-446, L414 A | L415 A | L417 A | L418 A | L421 A | V430 A | L434 A | L436 A)
T4 sequence (looked up): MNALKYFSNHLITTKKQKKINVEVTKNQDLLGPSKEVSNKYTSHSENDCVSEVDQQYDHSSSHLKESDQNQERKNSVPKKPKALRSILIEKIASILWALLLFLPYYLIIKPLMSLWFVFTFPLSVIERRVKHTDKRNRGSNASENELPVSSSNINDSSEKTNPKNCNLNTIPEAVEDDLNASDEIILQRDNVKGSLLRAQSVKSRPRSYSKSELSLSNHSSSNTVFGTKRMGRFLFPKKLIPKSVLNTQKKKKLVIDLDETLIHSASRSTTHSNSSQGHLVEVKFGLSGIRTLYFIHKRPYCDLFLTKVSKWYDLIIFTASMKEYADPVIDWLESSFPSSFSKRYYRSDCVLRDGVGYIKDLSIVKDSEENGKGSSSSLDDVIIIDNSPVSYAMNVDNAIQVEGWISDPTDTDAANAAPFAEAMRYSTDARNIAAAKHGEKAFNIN

[5] = molecular target: T5, protein A-tagged Nem1 (WT) (S. cerevisiae) (UniProt P38757)
T5 sequence: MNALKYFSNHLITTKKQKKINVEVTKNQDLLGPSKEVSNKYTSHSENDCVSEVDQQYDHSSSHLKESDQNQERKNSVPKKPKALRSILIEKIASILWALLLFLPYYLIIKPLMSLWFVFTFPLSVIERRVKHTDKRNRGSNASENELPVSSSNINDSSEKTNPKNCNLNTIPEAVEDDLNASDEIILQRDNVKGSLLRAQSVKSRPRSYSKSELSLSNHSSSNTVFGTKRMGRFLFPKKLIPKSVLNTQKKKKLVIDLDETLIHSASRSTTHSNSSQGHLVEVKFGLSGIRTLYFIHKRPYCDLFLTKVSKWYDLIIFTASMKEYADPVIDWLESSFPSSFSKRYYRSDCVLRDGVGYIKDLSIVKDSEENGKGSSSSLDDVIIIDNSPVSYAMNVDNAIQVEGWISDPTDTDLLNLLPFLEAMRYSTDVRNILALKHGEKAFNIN

[6] = molecular target: T6, protein A-tagged Nem1 Δ(414–446) (S. cerevisiae, UniProt P38757 1-413)
T6 sequence (looked up): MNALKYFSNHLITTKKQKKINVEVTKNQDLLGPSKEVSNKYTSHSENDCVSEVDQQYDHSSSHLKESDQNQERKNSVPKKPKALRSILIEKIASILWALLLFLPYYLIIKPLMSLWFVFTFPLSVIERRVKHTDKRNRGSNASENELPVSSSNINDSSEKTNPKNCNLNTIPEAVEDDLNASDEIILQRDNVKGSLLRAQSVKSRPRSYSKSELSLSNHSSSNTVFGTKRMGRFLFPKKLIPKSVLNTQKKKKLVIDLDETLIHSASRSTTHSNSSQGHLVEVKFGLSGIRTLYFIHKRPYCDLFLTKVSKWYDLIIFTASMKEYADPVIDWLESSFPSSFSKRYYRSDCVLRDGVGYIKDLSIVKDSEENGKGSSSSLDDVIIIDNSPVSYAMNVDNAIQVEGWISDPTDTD

B1: Spo7 (natural protein, S. cerevisiae, UniProt P18410 1-259, looked up)
chain: MEPESIGDVGNHAQDDSASIVSGPRRRSTSKTSSAKNIRNSSNISPASMIFRNLLILEDDLRRQAHEQKILKWQFTLFLASMAGVGAFTFYELYFTSDYVKGLHRVILQFTLSFISITVVLFHISGQYRRTIVIPRRFFTSTNKGIRQFNVKLVKVQSTWDEKYTDSVRFVSRTIAYCNIYCLKKFLWLKDDNAIVKFWKSVTIQSQPRIGAVDVKLVLNPRAFSAEIREGWEIYRDEFWAREGARRRKQAHELRPKSE
In the case of B1, the binding [1] is reported as “no binding”, the binding [2] is reported as “no binding” and the binding [3] is reported as “no binding”. For the same binder, the binding [4] was “no binding”, the binding [5] was “binds” and the binding [6] was “no binding”.
